# Measured values from the supplement of paper PMC8728848.
# The list shows a part of the results.
# B1: PX14343B-bfa-546-20-546 (Bacteroides fragilis) (protein)
# chain: CDLERYPLTDLSEETFWNSESNAELALTSLYRGSLTDGVEYNPSDWWSYHGMIMMEHLSDNAFDRRGENNPFFKISSGNLTADNAFIKRYWETSYKRIGYCNRFLVGIQNSSESEKKTRMIAEARFLRATQYFYLASYFKNVPLVENVLTGEEANNVTKTSQADILKWCVTEFTAAAADLPRFSAIPAGEAGRACKQAALAFLGRTCMLQKDWKSGAKAFHDIMELGDNAINANYQELFYPSTGTSNKENIFYIQYLENYLGTGLPQHALSAKDGGWSLVNPAADLYESYEFKDGTPFSYDDPRYDPSNLGKDRDPRLDYTIYYNGAIFMGTEYKMSPDYSAAKKEKLDYTSEASRTGFMMRKYFEESTPINDVQSANGLTPVIRYAEVLLGYLECLVEDNQTITQGILDETINAVRGRASVNMPPVTEVTPAKLREIVRHERRIELAMEGIRYWDIMRWGIAHEVLSQKIWGAPYPGSTQYATTTKEVDPTGNYRWYVGKRAFRNPTDYTWPIPQSEQNINPNLRD
# Assays:
# Experiment in all cases: glycan array binding signal (z-score within array); higher = stronger binding
# Conditions in all cases: glycan notation: IUPAC condensed, linker removed
# [1] = target: GlcNAc(b1-2)Gal(b1-3)GalNAc
# Summary of the method: (§1)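 The binding signal is a Z-score computed within each array and averaged over linkers. Arrays of the same protein sequence at different concentrations or buffers were also averaged together. Data originate from 3228 arrays in the Consortium for Functional Glycomics database, kept only where the protein sequence was available.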
# [2] = target: GlcNAc(b1-2)Man(a1-3)[GlcNAc(b1-2)Man(a1-6)]Man(b1-4)GlcNAc(b1-4)GlcNAc
# Summary of the method: as §1
# [3] = target: GlcNAc(b1-2)Man(a1-3)[GlcNAc(b1-2)Man(a1-6)]Man(b1-4)GlcNAc(b1-4)[Fuc(a1-6)]GlcNAc
# Summary of the method: as §1
# [4] = target: GlcNAc(b1-2)Man(a1-3)[GlcNAc(b1-4)][GlcNAc(b1-2)Man(a1-6)]Man(b1-4)GlcNAc(b1-4)GlcNAc
# Summary of the method: as §1
# [5] = target: GlcNAc(b1-2)Man(a1-3)[GlcNAc(b1-4)][GlcNAc(b1-2)Man(a1-6)]Man(b1-4)GlcNAc(b1-4)[Fuc(a1-6)]GlcNAc
# Summary of the method: as §1
# [6] = target: GlcNAc(b1-2)[GlcNAc(b1-4)]Man(a1-3)[GlcNAc(b1-2)Man(a1-6)]Man(b1-4)GlcNAc(b1-4)GlcNAc
# Summary of the method: as §1
# [7] = target: GlcNAc(b1-2)[GlcNAc(b1-4)]Man(a1-3)[GlcNAc(b1-4)][GlcNAc(b1-2)Man(a1-6)]Man(b1-4)GlcNAc(b1-4)GlcNAc
# Summary of the method: as §1
# [8] = target: GlcNAc(b1-2)[GlcNAc(b1-4)]Man(a1-3)[GlcNAc(b1-4)][GlcNAc(b1-2)[GlcNAc(b1-6)]Man(a1-6)]Man(b1-4)GlcNAc(b1-4)GlcNAc
# Summary of the method: as §1
# [9] = target: GlcNAc(b1-2)[GlcNAc(b1-4)]Man(a1-3)[GlcNAc(b1-4)][GlcNAc(b1-2)[GlcNAc(b1-6)]Man(a1-6)]Man(b1-4)GlcNAc(b1-4)[Fuc(a1-6)]GlcNAc
# Summary of the method: as §1
# [10] = target: GlcNAc(b1-2)[GlcNAc(b1-6)]Man(a1-6)[GlcNAc(b1-2)Man(a1-3)]Man(b1-4)GlcNAc(b1-4)GlcNAc
# Summary of the method: as §1
# [11] = target: GlcNAc(b1-2)[GlcNAc(b1-6)]Man(a1-6)[GlcNAc(b1-2)Man(a1-3)]Man(b1-4)GlcNAc(b1-4)[Fuc(a1-6)]GlcNAc
# Summary of the method: as §1
# [12] = target: GlcNAc(b1-2)[GlcNAc(b1-6)]Man(a1-6)[GlcNAc(b1-4)][GlcNAc(b1-2)Man(a1-3)]Man(b1-4)GlcNAc(b1-4)GlcNAc
# Summary of the method: as §1
# GlcNAc(b1-3)Fuc = target: GlcNAc(b1-3)Fuc
# Summary of the method: as §1
# GlcNAc(b1-3)Gal = target: GlcNAc(b1-3)Gal
# Summary of the method: as §1
# [13] = target: GlcNAc(b1-3)Gal(b1-3)GalNAc
# Summary of the method: as §1
# GlcNAc(b1-3)Gal(b1-4)Glc = target: GlcNAc(b1-3)Gal(b1-4)Glc
# Summary of the method: as §1
# [14] = target: GlcNAc(b1-3)Gal(b1-4)GlcNAc
# Summary of the method: as §1
# [15] = target: GlcNAc(b1-3)Gal(b1-4)GlcNAc(b1-2)Man(a1-3)[GlcNAc(b1-3)Gal(b1-4)GlcNAc(b1-2)Man(a1-6)]Man(b1-4)GlcNAc(b1-4)GlcNAc
# Summary of the method: as §1
# [16] = target: GlcNAc(b1-3)Gal(b1-4)GlcNAc(b1-2)Man(a1-3)[GlcNAc(b1-3)Gal(b1-4)GlcNAc(b1-2)Man(a1-6)]Man(b1-4)GlcNAc(b1-4)[Fuc(a1-6)]GlcNAc
# Summary of the method: as §1
# [17] = target: GlcNAc(b1-3)Gal(b1-4)GlcNAc(b1-2)[GlcNAc(b1-3)Gal(b1-4)GlcNAc(b1-6)]Man(a1-6)[GlcNAc(b1-3)Gal(b1-4)GlcNAc(b1-2)Man(a1-3)]Man(b1-4)GlcNAc(b1-4)GlcNAc
# Summary of the method: as §1
# [18] = target: GlcNAc(b1-3)Gal(b1-4)GlcNAc(b1-3)Gal(b1-4)GlcNAc
# Summary of the method: as §1
# [19] = target: GlcNAc(b1-3)Gal(b1-4)GlcNAc(b1-3)Gal(b1-4)GlcNAc(b1-2)Man(a1-3)[GlcNAc(b1-3)Gal(b1-4)GlcNAc(b1-3)Gal(b1-4)GlcNAc(b1-2)Man(a1-6)]Man(b1-4)GlcNAc(b1-4)GlcNAc
# Summary of the method: as §1
binder,measurement,setting,value
B1,glycan array binding signal (z-score),[1],-0.112
same,glycan array binding signal (z-score),[2],-0.123
same,glycan array binding signal (z-score),[3],-0.117
same,glycan array binding signal (z-score),[4],-0.127
same,glycan array binding signal (z-score),[5],-0.122
same,glycan array binding signal (z-score),[6],-0.125
same,glycan array binding signal (z-score),[7],-0.124
same,glycan array binding signal (z-score),[8],-0.13
same,glycan array binding signal (z-score),[9],-0.13
same,glycan array binding signal (z-score),[10],-0.117
same,glycan array binding signal (z-score),[11],-0.122
same,glycan array binding signal (z-score),[12],-0.106
same,glycan array binding signal (z-score),GlcNAc(b1-3)Fuc,-0.12
same,glycan array binding signal (z-score),GlcNAc(b1-3)Gal,-0.132
same,glycan array binding signal (z-score),[13],-0.115
same,glycan array binding signal (z-score),GlcNAc(b1-3)Gal(b1-4)Glc,-0.13
same,glycan array binding signal (z-score),[14],-0.127
same,glycan array binding signal (z-score),[15],-0.128
same,glycan array binding signal (z-score),[16],-0.114
same,glycan array binding signal (z-score),[17],-0.093
same,glycan array binding signal (z-score),[18],-0.122
same,glycan array binding signal (z-score),[19],-0.095
